Results taken from PubChem BioAssay AID651568 (National Center for Advancing Translational Sciences (NCATS), 2012).
Among all 1,200 compounds or so, about 55 (5%) were called active. Inconclusive results (about 15%) are left out. Calls come from the whole dose curve; as a rule, active = well fitted inhibition curve with a large enough effect; inconclusive = small, poorly fitted or top-dose-only effect; inactive = no such curve, though single readings can be large or run the other way. This is one part of the list.

assay: qHTS Assay to Find Inhibitors of Chronic Active B-Cell Receptor Signaling: Hit Validation in Renilla Reporter Assay; conditions: TMD8 IkB-Renilla luciferase reporter, NF-kB signaling; series mostly up to 57.5 µM; activity change, negative = inhibition: at the top concentration; note: nearly all actives have a fitted effect of over 70% in size
Summary of the method: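 Orthogonal secondary test of primary-screen hits in ABC-DLBCL cells carrying constitutively expressed IkB-Photinus and Renilla luciferase reporters, read by Dual-Glo luminescence; luciferases differ from the primary assay's click beetle enzymes, to exclude assay-specific artifacts.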
% is set by controls: 0 for no effect and ±100 for the full control effect; potency is the fitted concentration of half-maximal effect.

Compound	activity change, negative = inhibition	Potency
CCN1C(=O)c2cccc3c(S(=O)(=O)Nc4nc(C)cs4)ccc1c23	inactive: -19.2%	–
CC(C)N1C(=O)/C(=C\c2nc3ccccc3c(=O)[nH]2)c2ccccc21	–	active: 23.9 µM
COc1cc2c(cc1OC)C(/C(C#N)=N\O)=NC(C)(C)C2	inactive: 2.79%	–
Cc1c(NC(=S)NC(=O)C(c2ccccc2)c2ccccc2)cccc1C(=O)O	inactive: -15.6%	–
OCc1ccnc2c(O)cccc12	inactive: 9.15%	–
COc1ccccc1-c1cc(C(=O)Nc2cccnc2)no1	inactive: -1.55%	–
CCONC(=O)Nc1ccccc1[N+](=O)[O-]	inactive: 0.531%	–
CCCCn1c(SCC(=O)c2cc(OC)ccc2OC)nc2cc(S(N)(=O)=O)ccc21	inactive: -0.961%	–
COc1cc(-c2noc(C)c2/C=C/c2ccc(N)cc2)cc(OC)c1OC	inactive: -22.7%	–
Cc1c(CCC(=O)O)c(=O)oc2cc3oc4c(c3cc12)CCCC4	inactive: -13.6%	–
C/C(=N/NC(=O)COc1cc(C)ccc1C(C)C)C(=O)O	inactive: -3.63%	–
CCCCN(C(=O)CSc1nc2ccccc2n1CC)C1CCS(=O)(=O)C1 (stereo not drawn)	inactive: 1.42%	–
CCCCn1c(-c2csc(C(C)C)c2)n[nH]c1=S	inactive: -0.83%	–
COc1cc(/C=N/NC(=O)NC2CCCCC2)ccc1O	inactive: 0.432%	–
CC1(C)Cc2c(sc3ncnc(NNC(=S)NCc4ccccc4)c23)CO1	inactive: -1.15%	–
COc1cc2c(cc1[N+](=O)[O-])n(C(C)C)c(=O)n2C(C)C	inactive: 2.57%	–
CCOc1c(Cl)cc(CNCC(C)C)cc1OC	inactive: 2.79%	–
CC(C)COc1ccc(C(=O)Nc2cc(S(=O)(=O)N3CCOCC3)ccc2N2CCCC2)cc1	inactive: 11.9%	–
Cc1cccc(NC(=S)N/N=C/C(C)c2ccccc2)c1C (stereo not drawn)	inactive: 4.68%	–
CCN(CC)c1ccc2c(C)c(CO)c(=O)oc2c1	inactive: 0.882%	–
N#Cc1c(NC(=O)/C=C/c2ccco2)sc2c1CCCC2	inactive: -2.56%	–
Cc1ncc(CO)c2c1Oc1nc(-c3ccccc3)nc(SCC(=O)N3CCOCC3)c1C2	inactive: -17.2%	–
COCCNC(=S)N/N=C(\C)c1ccc(Cl)s1	inactive: -0.528%	–

Compound	activity change, negative = inhibition	Potency
CC[C@]12c3[nH]c4cc(CCC(=O)N(C)C)ccc4c3CCN1C(=O)[C@@H](CC(=O)NCc1ccco1)C[C@@H]2C(=O)N1CCN(C(=O)c2ccco2)CC1	inactive: 7.44%	–
CCOc1c(OC)cccc1C1CC(=O)Nc2cc(OC)c(OC)cc21 (stereo not drawn)	inactive: 9.77%	–
Cc1cc(C(=O)N/N=C/c2ccc(N(C)C)cc2)c2ccccc2n1	inactive: 0.431%	–
C/C(=N\NC(=O)C(C)n1nc(C)c([N+](=O)[O-])c1C)c1ccccc1O (stereo not drawn)	inactive: -3.57%	–
CC1CCCCN1C(=S)NC(=O)c1cccs1 (stereo not drawn)	inactive: 6.78%	–
CCOc1ccc(CCNC(=O)c2cc(=O)[nH]c3ccc(S(=O)(=O)N4CCCCC4C)cc23)cc1OCC (stereo not drawn)	inactive: 5.04%	–
C=CCOc1ccc2ccccc2c1CNn1c(C)n[nH]c1=S	inactive: 8.77%	–
O=C(N1CCN(c2ccccn2)CC1)N1c2ccccc2Sc2ccccc21	inactive: 0.521%	–
Cc1c(C(=O)N/N=C/c2ccc(Cl)cc2)[nH]c2ccc(Cl)cc12	inactive: -78.9%	–
COc1ccc2c(C#CCCO)c(-c3ccc(S(C)(=O)=O)cc3)sc2c1	inactive: -13.8%	–
COc1cc(C(=O)N/N=C(\Cc2ncc[nH]2)c2ccccc2)cc(OC)c1OC	inactive: 3.02%	–
N#Cc1c(NC(=O)CSc2ncn[nH]2)sc2c1CCCC2	inactive: -19.3%	–
COc1ccc(C(=O)c2cc([N+](=O)[O-])ccc2N2CCOCC2)cc1	inactive: -4.12%	–
Cc1cccc(NC(=S)N=Nc2c(O)n(C)c3ccc(S(=O)(=O)N4CCOCC4)cc23)c1	inactive: -23.4%	–
C[C@H]1C[C@@H]2[C@H]([C@@H](O)C[C@@]3(C)[C@H]2CC[C@]3(O)C(=O)CO)[C@@]2(C)C=CC(=O)C=C12	inactive: 2.44%	–
CCOc1cc(C(=O)N/N=C/C2CC=CCC2)cc(OCC)c1OCC (stereo not drawn)	inactive: -2.2%	–
CC(/C=C/c1ccccc1)=N\NC(N)=S	inactive: -1.62%	–
COc1cccc(N2CC(O)=C(c3nc4ccccc4s3)C2=N)c1	inactive: 2.59%	–
CCOC(=O)N1CCC(NC(=O)CS(=O)(=O)Cc2nc(-c3ccccc3C)oc2C)CC1	inactive: -5.96%	–
COc1ccc(/C=N/NC(=O)CCn2cnc(-c3ccccc3)c2-c2ccccc2)cc1OC	inactive: -24.2%	–
COc1ccc2c(c1)OC(=O)CC2c1cc(OC)c(OC)c(OC)c1 (stereo not drawn)	inactive: -10.4%	–
CCN1C(=O)c2cccc3c(S(=O)(=O)Nc4ccccc4O)ccc1c23	inactive: -19%	–
CCN(CC(=O)Nc1ccccc1SC)Cc1nc2ccccc2c(=O)[nH]1	inactive: 1.19%	–

Compound	activity change, negative = inhibition	Potency
CCOC(=O)C1=C(C)c2ccccc2N(C(=O)OC)C1(C)C(=O)OCC (stereo not drawn)	inactive: 0.0176%	–
COc1cc(C(=O)c2cocc2C(=O)c2ccc3c(c2)OCO3)cc(OC)c1OC	inactive: -15.6%	–
Clc1cncc(Cl)c1N/N=C/c1ccncc1	inactive: -2.19%	–
O=C(N/N=C/c1cccs1)c1cc(-c2ccncc2)nc2ccccc12	inactive: -14.9%	–
O=C(c1ccc(CS(=O)c2ccccc2Cl)o1)N1CCN(c2ccccc2)CC1 (stereo not drawn)	inactive: -1.35%	–
Oc1ccccc1/C=N/Nc1ccnc(SCc2ccccc2)n1	inactive: -2.7%	–
CN(C)c1ccc(C(=O)c2ccc(N(C)C)c3ccccc23)cc1	inactive: 26.2%	–
N#C/C(=C\c1cn(Cc2ccc(F)cc2)c2ccccc12)C(=O)NCc1ccco1	inactive: -24.2%	–
O=C(NCCc1ccccc1)c1coc(=O)c(Br)c1	inactive: -91.9%	–
COc1ccc(-c2cc(C(=O)N/N=C(\C)c3cccnc3)c3ccccc3n2)cc1	inactive: -1.73%	–
CCCNc1nc(-c2ccccc2)c(C(=O)OCC)cc1C#N	inactive: 0.302%	–
CC(=O)Nc1ccc(S(=O)(=O)N2c3ccccc3C(C)=CC2(C)C)cc1	inactive: 4.2%	–
COc1ccccc1N1CCN(C(=O)C2c3ccccc3Oc3ccccc32)CC1	inactive: 1.62%	–
O=C(Oc1ccc2ccc(OC(=O)N3CCOCC3)cc2c1)N1CCOCC1	inactive: 5.12%	–
O=[N+]([O-])c1cc(/C=N/O)ccc1Sc1ccccc1	inactive: 3.47%	–
COc1ccc(N2CC(C(=O)N3CCC(c4nc5ccccc5[nH]4)CC3)CC2=O)cc1 (stereo not drawn)	inactive: 0.0753%	–
COc1ccc(C2=Nn3c(nnc3-c3ccccc3OC)SC2)cc1OC	inactive: -15.3%	–
COc1ccc(/C=C/C(=O)c2cc(F)ccc2OC(=O)c2ccccc2OC)cc1OC	–	active: 6.75 µM
COC(=O)COc1cccc2c(=O)n(CC(=O)NCc3ccccc3)ccc12	inactive: 3.58%	–
CCOC(=O)c1ccc(NC(=S)NNC(C)(C)C)cc1	inactive: 16.3%	–
O=c1cnnc(N/N=C/C2CC=CCC2)[nH]1 (stereo not drawn)	inactive: 1.82%	–
CN(C)/C=N/c1sc2c(c1C#N)CCCC2	inactive: 0.366%	–
